Data: PubChem BioAssay AID1240 (Sanford-Burnham Center for Chemical Genomics, 2008)
Among all 50,000 compounds or so, about 800 (1.6%) showed an effect of 50% or more. The list shows a part of the results.

target: Bcl-2-like protein 10 (Homo sapiens) (UniProt Q9HD36); assay: Phenotype converters, Bcl-B/TR3 peptide binding displacement, primary biochemical FP (AID 1240); settings: GST-Bcl-B / FITC-TR3 peptide fluorescence polarization; stronger effect = higher value; compound at 3.75 mg/L;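 also: 0% = Bcl-B with tracer peptide and DMSO and 100% = tracer peptide lacking Bcl-B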
Sequence of UniProt Q9HD36 (Q9HD36 whole entry, looked up): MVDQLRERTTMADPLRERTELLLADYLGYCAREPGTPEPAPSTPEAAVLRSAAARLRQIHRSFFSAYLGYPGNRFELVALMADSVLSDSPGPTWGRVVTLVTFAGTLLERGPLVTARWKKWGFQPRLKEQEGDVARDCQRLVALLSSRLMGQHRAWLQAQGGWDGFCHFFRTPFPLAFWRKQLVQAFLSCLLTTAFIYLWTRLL

| Compound | displacement |
| --- | --- |
| c1ccc2oc(N3CCOCC3)nc2c1 | -3.8% |
| COc1ccc(C(=O)Nc2sc3c(c2C#N)CC(C)(C)SC3)cc1[N+](=O)[O-] | -6.1% |
| O=C(NCc1ccc2c(c1)OCO2)c1cccc(I)c1 | 6.6% |
| O=C1NN(c2ccc(F)cc2)C(=O)/C1=C\c1ccc(F)cc1 | -11.6% |
| Cc1ccccc1OCCSc1nc2ccccc2n1CCO | 3% |
| CCOc1ccccc1NC(=O)COc1ccc(Br)cc1 | -5.2% |
| COC(=O)c1cc(NC(=O)/C=C/c2cccc([N+](=O)[O-])c2)cc(C(=O)OC)c1 | 10.4% |
| CCOC(=O)c1c(NC(=O)c2ccccc2)sc2c1CCC/C2=N/O | -0.2% |
| CCC(=O)N1CCN(c2cc(C)c([N+](=O)[O-])cc2F)CC1 | -11% |
| COc1ccc(CCNc2cc(N3CCN(C)CC3)ccc2[N+](=O)[O-])cc1OC | 6.6% |
| COc1ccc(C2CC(=O)C3=C(C2)Nc2ccccc2NC3c2cc(OC)ccc2OC)cc1 (centres undefined) | -6.1% |
| Cc1nn(C(=O)c2ccncc2)c(C)c1Sc1ccc(Br)cc1 | -4.5% |
| CCOC(=O)C1=C(C)NC(=O)NC1c1ccc(N2CCOCC2)cc1 (centres undefined) | -7.7% |
| COc1ccc2c(c1)N(S(=O)(=O)c1ccc(NC(C)=O)cc1)C(C)(C)C=C2C | 3.8% |
| O=C(NCCCN1CCOCC1)c1cc(-c2ccccc2)nc2ccccc12 | -8.6% |
| O=C1NC(=S)N/C1=C\c1ccc(-c2cc([N+](=O)[O-])ccc2Br)o1 | 1.6% |
| Cc1cc(C(=O)N/N=C/c2ccccc2OCC(=O)O)n[nH]1 | -16% |
| CC(=O)OCCNC(=O)/C(=C\c1ccc2c(c1)OCO2)NC(=O)c1ccco1 | -15.6% |
| O=C(c1cccnc1)N1CCN(c2ccc(F)cc2)CC1 | -9% |
| N#CC1=C(N)Oc2cc(N)ccc2C1c1cccs1 (centres undefined) | -0.5% |
| Fc1ccc(-c2noc(-c3ccc(Br)cc3)n2)cc1 | -5.1% |
| O=C1NC(=O)N(c2ccc(Br)cc2)C(=O)/C1=C/c1ccc(F)cc1 | 0.4% |
| Cc1nc(-c2ccccc2)sc1C(N)=O | 14.3% |
| COc1ccc2c(c1OC)C(=O)OC2Nc1ccc(Br)cc1 (centres undefined) | -12.6% |
| CC1=NN(c2ccccc2)C(=O)/C1=C\c1ccc(-c2ccc3c(c2)C(=O)NC3=O)o1 | 10.9% |
| c1ccc(COc2ccc(C3Nc4cccc5cccc(c45)N3)cc2)cc1 | 5.8% |
| COc1ccc(NC(=O)C(=O)NC2CCCC2)cc1 | 6.1% |

| Compound | displacement |
| --- | --- |
| Cc1ccc(N2C(=O)NC(=O)/C(=C\c3ccc4c(c3)OCO4)C2=O)cc1C | 2.1% |
| Cc1sc(NC(=O)C2C3C=CC(C3)C2C(=O)O)nc1-c1ccccc1 (centres undefined) | -1.3% |
| Cc1ccc2oc(-c3cccc(NC(=O)COc4ccccc4[N+](=O)[O-])c3C)nc2c1 | -1.9% |
| COc1ccc(C(=O)Nc2cccc(-c3nc4ccccc4o3)c2C)cc1 | -0.6% |
| O=C(NCCc1ccccc1Cl)C(=O)NCc1ccco1 | 10.9% |
| CCOc1ccccc1C(=O)Nc1cccc(OC)c1 | -1.6% |
| COc1ccc(/C=C/C(=O)NCc2ccc(Cl)cc2)cc1 | -10.3% |
| COc1ccc(C(=O)N2CCN(Cc3ccccc3)CC2)cc1[N+](=O)[O-] | 14.1% |
| Cc1ccc(CN2CCN(/N=C\c3cccc(O)c3)CC2)cc1 | -8.1% |
| CCOc1cc(OCC)cc(C(=O)Nc2cc(-c3nc4ccccc4s3)ccc2C)c1 | 4.1% |
| CC(=O)OCCCN1C(=O)c2ccccc2C1=O | 4.4% |
| Cc1ccc(/C=C2/SC(=S)N(C(C)C(=O)O)C2=O)cc1 (centres undefined) | 12.4% |
| COc1ccccc1NS(=O)(=O)c1cccc2c1C(=O)c1ccccc1C2=O | 3% |
| COc1ccc(C(O)(C(=O)NCc2ccc(N(C)C)cc2)c2ccc(OC)cc2)cc1 | -1.9% |
| COc1ccc(OC(=O)c2ccc(OC)c(S(=O)(=O)N3CCOCC3)c2)cc1 | -2.7% |
| S=C(Nc1ccccc1)Nc1ccc(Cl)cc1 | 6.9% |
| O=[N+]([O-])c1ccc2[nH]c(O)c(C=NCc3ccccc3)c2c1 | -3.4% |
| O=C1OC2C=CC(Br)=CC2C=C1C(=O)N1CCSC1c1ccc2c3c(cccc13)CC2 (centres undefined) | 24.2% |
| C=CCNC(=O)C(=O)Nc1ccccc1OC | 10.1% |
| O=C(Nc1ccc(-c2cnc(-c3ccc(NC(=O)c4ccco4)cc3)nc2)cc1)c1ccco1 | 24.6% |
| O=C(O)C1C(C(=O)Nc2ccc(I)cc2)C2C=CC1C21CC1 (centres undefined) | -1.2% |
| CC(=O)CC(=O)Nc1cc(C(F)(F)F)ccc1Cl | 0.4% |
| Cc1ccccc1OCCNC(=O)CCc1ccccc1 | -21.6% |
| Cc1ccc(C(=O)Oc2cccc(C3C4=C(Nc5c3c(=O)n(C)c(=O)n5C)c3ccccc3C4=O)c2)cc1 (centres undefined) | 12.9% |
| O=[N+]([O-])c1ccc(-n2ncnc2-c2ccc(Br)cc2)c(Cl)c1 | 14.5% |
| C=CCN1C(=O)/C(=C\c2ccc(OCCOc3cccc(OC)c3)c(OC)c2)SC1=S | 2.2% |
| c1ccc2cc(OCCCCn3ccnc3)ccc2c1 | -9.3% |
